Screen size: about 310,000 compounds; about 14,000 (4.5%) showed an effect of 50% or more. The effect is printed as a negative number. This is one part of the list.
molecular target: human ether-à-go-go-related gene (hERG) potassium channel (human, UniProt Q12809); test: primary screen, population patch clamp on CHO cells stably expressing hERG
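Further: peak tail current of the secondary pulse compared with the same well before compound.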

Sequence of human ether-à-go-go-related gene (hERG) potassium channel (Q12809 whole entry, looked up): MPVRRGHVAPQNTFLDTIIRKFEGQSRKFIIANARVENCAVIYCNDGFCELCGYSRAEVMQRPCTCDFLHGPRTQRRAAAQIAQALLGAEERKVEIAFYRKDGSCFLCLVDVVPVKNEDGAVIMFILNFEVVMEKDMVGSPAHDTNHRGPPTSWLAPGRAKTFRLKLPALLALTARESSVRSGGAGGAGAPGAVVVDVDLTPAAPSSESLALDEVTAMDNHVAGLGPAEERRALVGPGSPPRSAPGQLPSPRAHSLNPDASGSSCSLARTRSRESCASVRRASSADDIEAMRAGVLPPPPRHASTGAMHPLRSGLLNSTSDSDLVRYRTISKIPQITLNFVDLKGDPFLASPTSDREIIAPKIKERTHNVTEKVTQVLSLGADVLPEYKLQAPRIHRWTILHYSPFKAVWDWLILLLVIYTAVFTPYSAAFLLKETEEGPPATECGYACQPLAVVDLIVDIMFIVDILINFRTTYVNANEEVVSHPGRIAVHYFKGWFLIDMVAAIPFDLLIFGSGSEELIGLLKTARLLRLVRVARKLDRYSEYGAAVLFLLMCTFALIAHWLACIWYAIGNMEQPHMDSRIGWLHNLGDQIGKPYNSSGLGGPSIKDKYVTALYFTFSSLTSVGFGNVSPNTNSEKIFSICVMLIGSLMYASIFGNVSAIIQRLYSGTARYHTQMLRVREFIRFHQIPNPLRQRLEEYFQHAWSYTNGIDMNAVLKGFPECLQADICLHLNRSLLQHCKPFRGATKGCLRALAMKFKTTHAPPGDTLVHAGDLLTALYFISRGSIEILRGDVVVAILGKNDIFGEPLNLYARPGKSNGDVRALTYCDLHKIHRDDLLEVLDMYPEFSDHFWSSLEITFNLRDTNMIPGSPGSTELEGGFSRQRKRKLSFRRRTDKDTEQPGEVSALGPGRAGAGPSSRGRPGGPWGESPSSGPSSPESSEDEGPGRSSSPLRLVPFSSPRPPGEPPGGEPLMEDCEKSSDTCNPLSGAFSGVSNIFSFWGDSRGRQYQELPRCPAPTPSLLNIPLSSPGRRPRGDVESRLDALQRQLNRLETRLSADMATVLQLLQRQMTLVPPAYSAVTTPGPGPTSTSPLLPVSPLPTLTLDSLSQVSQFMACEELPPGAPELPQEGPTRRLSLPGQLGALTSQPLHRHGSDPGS

| SMILES | hERG current change (%, negative = inhibition) at 10uM |
| --- | --- |
| O=C(CN1C(=O)CCSc2ccccc21)Nc1ccccc1 | -15% |
| COC(=O)c1[nH]c2cccc(OC)c2c1NC(=O)CN1CC(C)OC(C)C1 (stereo not shown) | 5.32% |
| Cc1ccc(SCCNC(=O)c2ccc([N+](=O)[O-])c(C)c2)cc1 | -10.3% |
| COc1ccc(NS(=O)(=O)c2ccc(C(=O)OC(C)C(=O)N3CCOCC3)cc2)cc1 (stereo not shown) | -17.3% |
| COc1cccc(C(=O)NCCS(=O)(=O)N(C)C2CCCCC2)c1 | -18.9% |
| O=c1c2ccccc2nc(/C=C/c2ccccc2)n1-c1ccccc1O | 9.71% |
| Cn1c(O)c(N=Nc2ccccc2[N+](=O)[O-])c2ccccc21 | 11.9% |
| COc1cc(OC)cc(-c2nc3ccccc3s2)c1 | -3.1% |
| CCNc1nc(SCCOc2ccc(Br)cc2)nc(N(C)C)n1 | 19.6% |
| O=c1[nH]c(CSc2cccc[n+]2[O-])nc2ccccc12 | -0.346% |
| CC1CN(c2nc(N(C)c3ccccc3)nc(N)c2[N+](=O)[O-])CC(C)O1 (stereo not shown) | -7.34% |
| Cc1ccc(C)c(CS(=O)(=O)c2cn(CC(=O)N3CCC(C)CC3)c3ccccc23)c1 | -15.2% |
| Cc1csc(NC(=O)c2nc3nccc(C)n3n2)n1 | 7.42% |
| COC(=O)c1sccc1NC(=S)N1CCN(c2ccccc2F)CC1 | 28.3% |
| COc1ccccc1OCCCOc1ccc(/C=C2\SC(=O)NC2=O)cc1OC | 18.5% |
| COc1ccc(C(C)=O)cc1CC(=O)NCCCn1ccnc1 | 13.3% |
| Cc1cccc(Oc2ccc(NC(=O)c3ccccc3C(=O)O)cc2)c1C | 19% |
| O=C(CSc1cccc[n+]1[O-])Nc1ccc2c(c1)OCO2 | 6.96% |
| CC1=C(C)C(c2ccccc2)NC(=S)N1 (stereo not shown) | 35.3% |
| CCOC(CNC(=O)c1ccc(CNC(=O)c2ccc(OC)c(OC)c2)cc1)OCC | 20.2% |
| CS(=O)(=O)N1CCN(C(=O)C2c3ccccc3Oc3ccccc32)CC1 | -10.2% |
| O=C(COC(=O)c1c(F)cccc1F)NCc1ccc2c(c1)OCO2 | 8.43% |

| SMILES | hERG current change (%, negative = inhibition) at 10uM |
| --- | --- |
| O=C(CCC(=O)Nc1ccc(Br)cc1)N/N=C/c1cc([N+](=O)[O-])ccc1O | 20.7% |
| COc1cc(OC)cc(C(=O)Nc2ccc(N3CCOCC3)cc2N2CCOCC2)c1 | -32.5% |
| CN(C)c1nc(C(=O)NN)nc(N(C)C)n1 | 1.32% |
| C#CC1CN(Cc2ccccc2)CC(C#C)N1C.Cl (stereo not shown) | 15.4% |
| O=C(Nc1cccnc1)c1ccc(NS(=O)(=O)c2cccc([N+](=O)[O-])c2)cc1 | 1.53% |
| O=C(CN1CCN(C(=O)c2ccccc2F)CC1)Nc1ccc(Br)cc1 | -64.6% |
| Cc1cc(NCc2ccncc2)ccc1Br.O=C(O)C(=O)O | -0.637% |
| Cc1cccc(NC(=O)CN2CCN(C(=O)COc3cccc(Br)c3)CC2)c1C | -70.4% |
| COc1ccc(NC(=O)CC2(CC(=O)O)CCCC2)cn1 | 16.7% |
| CC(C)(C)NC(=O)Cn1nnc(-c2ccccc2Cl)n1 | 6.43% |
| COc1ccccc1CNC(=O)c1ccccc1NC(=O)C1=C(C)OCCS1 | 4.46% |
| Cc1ccc(/C=C/C(=O)O)cc1S(=O)(=O)NCc1ccco1 | 14.5% |
| COc1ccccc1CN1CC(C(=O)N2CCCCO2)CCC1=O (stereo not shown) | -65.7% |
| CC(=O)c1cccc(S(=O)(=O)N2CCn3cccc3C2C)c1 (stereo not shown) | -8.58% |
| O=C(CSc1cccs1)Nc1cccc2ccccc12 | -8.86% |
| COc1ccccc1[C@@H]1C(c2cccc(Cl)c2)=NN(c2ccc(Br)cc2)[C@H]1C(=O)N1CCOC1=O | 18.5% |
| COc1ccc(/C=C/c2nnc(NC(=O)C(C)(C)C)s2)cc1 | -27.2% |
| Cc1ccc2nc(Nc3nc(CSc4nnnn4-c4ccccc4)cc(=O)[nH]3)nc(C)c2c1 | -23.8% |
| O=C(NCCCN1CCN(c2ccccc2F)CC1)C1CCC(=O)N1C1CCCCC1 (stereo not shown) | -12.2% |
| COc1ccc(Cc2nnnn2CC(=O)O)cc1 | 1.51% |
| CC1(C)NC(=O)N(CC(O)COc2cc3ccccc3cc2C(=O)N2CCCCC2)C1=O (stereo not shown) | -4.31% |
| COC(=O)c1ccc(CO/N=C/c2ccccc2OC)cc1 | 19.3% |

| SMILES | hERG current change (%, negative = inhibition) at 10uM |
| --- | --- |
| Cc1c(Cl)cccc1NC(=S)N1CCC(C(N)=O)(N2CCCCC2)CC1 | -16.5% |
| CC1CCCC(NC(=S)Nc2cccc(S(=O)(=O)N(C)C)c2)C1C (stereo not shown) | 13.7% |
| CN(C1CCS(=O)(=O)C1)S(=O)(=O)c1ccc(N2CCCC2=O)cc1 (stereo not shown) | 4.8% |
| COCC(=O)N(c1ccccc1)C(C)C(=O)OC (stereo not shown) | -4.9% |
| COc1ccccc1CNC(=O)COc1ccc(S(=O)(=O)N2CCOCC2)cc1C | -18.5% |
| Cl.O=C(CCN1CCN(c2ccccc2F)CC1)c1ccc(Br)cc1 | -84.5% |
| CCC(=O)OCC(=O)Nc1ccc2c(c1)OCO2 | 28.3% |
| O=C(/C=C/C=C/c1ccc2c(c1)OCO2)N1CCCCC1 | -8.23% |
| Clc1ccccc1-c1nn2c(Cn3cnc4ccccc43)nnc2s1 | -12.3% |
| O=C(CSC1c2ccccc2-c2ccccc21)N/N=C/c1ccccc1O | -3.68% |
| CCOC(=O)c1c(NC(=O)CNC2CCCCC2)sc(C)c1C | 10.3% |
| O=C(CN1C(=O)NC2(CCCCC2)C1=O)Nc1cc(C(F)(F)F)ccc1N1CCCCC1 | -1.7% |
| NS(=O)(=O)c1ccc(-c2ccc(/C=N/NC(=O)c3ccccc3O)o2)cc1 | 23.8% |
| Cc1noc(C)c1COc1ccc(C(=O)OCC(=O)NCc2ccccc2Cl)cc1 | -1.66% |
| CCc1c(C)c(C#N)c2nc3ccccc3n2c1-n1nc(C)cc1C | -1.87% |
| CC(=O)C1=C(O)C(=O)N(c2ccc(C(=O)O)cc2)C1c1ccc([N+](=O)[O-])cc1 (stereo not shown) | 20.9% |
| CN(C)c1nc(OCCNC(=O)COc2ccccc2Cl)nc(N(C)C)n1 | 6.99% |
| Nc1ccccc1SCC1CSc2nc3ccccc3c(=O)n21 (stereo not shown) | -45.2% |
| CC(C)[C@H](NC(=O)c1cc2cc(Cl)ccc2n1C)C(=O)N1CCC(C(=O)O)CC1 | 17.8% |
| Cc1ccccc1-n1c(SCC(=O)c2cc(C)n(C)c2C)nnc1-c1ccncc1 | -24.6% |
| COCCN1CN=C(NS(=O)(=O)c2ccc(C)cc2)NC1 | 16.3% |
| CC(=O)c1ccc(OCCNS(=O)(=O)c2ccc(-n3cnnn3)c(C)c2)cc1 | -2.88% |

| SMILES | hERG current change (%, negative = inhibition) at 10uM |
| --- | --- |
| COc1cc(/C=C2\SC(=Nc3ccccc3OC)NC2=O)ccc1O | -21.4% |
| COc1ccc(OC)c(C(=O)NC(CC(N)=O)c2ccc(NCCN3CCCC3)c([N+](=O)[O-])c2)c1 (stereo not shown) | 8.75% |
| CC(=O)c1ccc(NC(=O)CN2CCC(C(=O)c3ccc(F)cc3)CC2)cc1 | -22.9% |
| CCS(=O)(=O)n1nc(-c2ccccc2)nc1SC | -6% |
| COc1ccc(-c2ccc(-c3noc(-c4ccccc4OC)n3)c(OC)n2)cc1 | 20.9% |
| Cc1cc(NC(=O)c2cc(-c3ccco3)on2)nn1Cc1ccc(Cl)cc1 | -31.8% |
| CCn1cc(C(=O)N2CCN(c3ccccn3)CC2)c2cc(OC)c(OC)cc2c1=O | -14.4% |
| Cc1ccc(C2=NCC(=O)N(CC(=O)N3CCCCC3)c3sc(C)c(C)c32)cc1 | -15.8% |
| Cc1ccc(-c2ccccc2)n1-c1ccc(C(=O)O)cc1 | -0.962% |
| COCCNC(=O)C1CCCN(c2ncccn2)C1 (stereo not shown) | 9.29% |
| COc1cc(/C=C2/C(=O)c3cccc([N+](=O)[O-])c3C2=O)c(Br)cc1O | 6.37% |
| COc1ccc(C(=O)O/N=C(\N)c2ccccc2)c(OC)c1 | -7.56% |
| Cc1cc(C)nc(SCC(=O)NC2=NC(=O)C(C)S2)n1 (stereo not shown) | -2.95% |
| Cc1noc(NS(=O)(=O)c2ccc(NC(=O)CSc3nnc(-c4ccccc4)n3C3CCCCC3)cc2)c1C | -19.3% |
| Cc1ccc(S(=O)(=O)N2CCN=C2SCc2ccc(Cl)c(Cl)c2)cc1 | 9.21% |
| CCCCOc1ccc([N+](=O)[O-])cc1C(=O)O | 24.9% |
| CC(=O)Nc1scc(C)c1-c1nc2ccccc2s1 | 1.39% |
| Cc1nnc(SCC(=O)Nc2cc(C(F)(F)F)ccc2Cl)n1C | 3.51% |
| COc1cc(/C=N/NC(=O)c2ccncc2)c([N+](=O)[O-])cc1OC | 6.83% |
| Cn1c(=O)c2c(nc(SCCCC#N)n2Cc2ccccc2F)n(C)c1=O | -9.16% |
| O=C(Nc1ccc(N2CCOCC2)cc1)C1CCN(S(=O)(=O)c2ccccc2F)CC1 | 4.41% |
| O=C(NC(=S)N(CCO)Cc1ccccc1)c1cc(Br)ccc1Cl | 3.48% |

From paper PMC4336329 (PLoS ONE, 2015)
